Values marked as one replicate rest on one cluster of the flow cell; about a third of the high ones do not repeat.
The sequences below were run on ATP (assay: switch fluorescence ratio, 500 uM ATP over buffer (Cy3 cluster intensity, sum of 5 cycles each) (fold (ratio)); higher = stronger signal-on switching upon ATP binding; sequences stand for … in TCGTCGGCAGCGTCAGATGTGTATAAGAGACAGTTTTTTTTTTTTTTTTTTTTTTTTT…TC). Details: aptamer strand: ATP DNA aptamer (quencher-CACCTGGGGGAGTATTGCGGAGGAAGG + anchor), 100 nM annealed; ATP concentration: 500 uM; one replicate.
In short: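 Between each of five buffer/ATP cycles, the flow-cell was stripped with NaOH and re-annealed. Each cycle imaged Cy3-labelled switching-strand clusters, annealed to 100 nM quencher-labelled ATP aptamer on a modified Illumina MiSeq flow-cell, first in selection buffer and then after 15 min with 500 uM ATP at 22 °C. The fluorescence ratio is summed target-cycle over summed buffer-cycle Cy3 intensity per cluster, averaged per switch-domain sequence, with clusters outside 100-1000 RFU excluded.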
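Further: ATP exposure 15 min at 22 °C before imaging.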

Sequence | switch fluorescence ratio
ACGTTATTCA | 1.15
ACGTTCCTGG | 1.16
ACGTTGACGT | 1.03
ACGTTGACTT | 1.14
ACGTTGGAGG | 1.05
ACGTTGTTTA | 1.04
ACGTTTATGC | 1.13
ACGTTTATTT | 1.05
ACGTTTCTCC | 1.64
ACGTTTGGTC | 1.02
ACGTTTTTAT | 1
ACTAAAGCGC | 1.05
ACTAACACCT | 1.41
ACTAACGGCA | 1.38
ACTAACTAGA | 1.09
ACTAAGCGCA | 1.04
ACTAAGTGTG | 0.983
ACTAATATG | 1.03
ACTAATTAGA | 1.03
ACTAATTAGG | 1.03
ACTACACATA | 1.35
ACTACCTCTG | 1.32
ACTACGACCT | 1.46
ACTACGATAA | 1.39
ACTACGGGGC | 1.18

Sequence | switch fluorescence ratio
ACTACGTGGC | 1.78
ACTACTTTGG | 0.972
ACTAGACGTC | 1.06
ACTAGCGTCT | 1.03
ACTAGCGTTC | 1.01
ACTAGCGTTT | 0.983
ACTAGGAATA | 1.03
ACTAGGACCG | 0.939
ACTAGGCGA | 1.01
ACTAGTCTGT | 0.996
ACTAGTGAA | 1.02
ACTAGTTCGC | 0.987
ACTAGTTCTG | 1.02
ACTAGTTTCT | 0.978
ACTAGTTTGA | 1
ACTATAGTTA | 0.976
ACTATCACCC | 1.19
ACTATCGCGA | 1.12
ACTATCGTTG | 0.92
ACTATCTAGA | 1.02
ACTATCTCTT | 1.02
ACTATGTTTT | 1.04
ACTATTTAGT | 0.948
ACTCACTGGA | 1.28
ACTCAGCTTC | 1.62

Sequence | switch fluorescence ratio
ACTCAGGCTT | 1.11
ACTCAGGGCT | 1.03
ACTCAGGTCG | 1.11
ACTCATCTAA | 1.05
ACTCATGCGT | 1.06
ACTCATGGAT | 0.966
ACTCATTGCG | 1.06
ACTCCCAGGA | 3.31
ACTCCCATAT | 3.19
ACTCCCGGTA | 1.53
ACTCCCTGTG | 1.21
ACTCCGGTGA | 3.19
ACTCGAGCGT | 1.12
ACTCGGAGA | 1.01
ACTCGGGTGC | 1.44
ACTCGGTGT | 1.07
ACTCGTCCAC | 1.08
ACTCTCGGGT | 1.05
ACTCTGAATC | 1.85
ACTCTGAGAG | 1.02
ACTCTTCTTT | 1.01
ACTCTTTGTA | 0.989
ACTGAAAGGA | 1.04
ACTGAACTGG | 1.2
ACTGAAGGCG | 1.01

Sequence | switch fluorescence ratio
ACTGAGCCAG | 1.04
ACTGAGGCTC | 1.01
ACTGAGGTCG | 1.06
ACTGAGTGTC | 1.02
ACTGAGTTGC | 1.06
ACTGAGTTT | 0.994
ACTGATCCAC | 1.13
ACTGATCTTC | 0.971
ACTGATTGTT | 1
ACTGATTTGA | 0.981
ACTGCAGCTG | 1.04
ACTGCAGGCA | 1.03
ACTGCCACC | 1.4
ACTGCGACGG | 1.15
ACTGCGAGTA | 0.996
ACTGCTTCCG | 1.2
ACTGGAATGT | 1.04
ACTGGAGGGG | 0.968
ACTGGAGGTA | 0.99
ACTGGAGTGG | 0.979
ACTGGATCGG | 1.02
ACTGGCACAC | 1.26
ACTGGGCACT | 1.04
ACTGGGGTG | 1.1
ACTGGGGTTC | 1.04

— the supplement of paper PMC10126150
